In the supplement of paper PMC11417369:
This is one part of the list.

System: PF3D7_0420300 AP2 domain 1 (GST-tagged)
Assay: gcPBM binding intensity (ln(normalized median fluorescence intensity)); higher = stronger DNA binding
Procedure, shortened: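 GST-tagged P. falciparum DNA-binding domains produced in E. coli were incubated for 1 h on an Agilent 4 × 180k array of primer-extended double-stranded 36-bp intergenic genomic probes with negative controls. Binding intensity is the highest Masliner-normalised natural-log median intensity across replicate spots of either probe orientation, with bound protein detected by Alexa488 anti-GST antibody at 488 nm.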

Sequence	gcPBM binding intensity (ln)
ATATATTTTTAATTTGCATGTAGTAAAGCCTTAAAT [TGCATGCA_site593]	9.1
CATCAAGTGAATTGTTGTACTTTACATTGTTTTTAT [XGTACX_site7261]	9.65
AATATCAATATTATATGTACTTATAATTTCAATGTA [XGTACX_site2423]	9.14
TAAATTTATTAATCAAGTACAAAATAAATTTTTATA [XGTACX_site2745]	8.91
TATATATAGAAACACACACACACATATATATATATA [CACACA_site4116]	9.96
AAAATTTAATATAATGCACACATAAAAAAAAAATCA [CACACA_site7882]	9.43
TAAAAAAGTTATATTACACACTTTATTGGTTAACTT [CACACA_site653]	9.35
ACATATAAATTATATACACACAATAATATATATATA [CACACA_site1384]	9.44
ATAATGTTTCTTTCAACACACAAAAAATGAACCCAT [CACACA_site4947]	9.61
TATTTATAAAAAAAATGTACATTTATGTATAAGCTA [XGTACX_site3266]	8.99
TATATATTATAAAAGAGTACAGAAAGAAAAAAAAAT [XGTACX_site8305]	9.54
ATATTCAATATATTATGTACACATATATGAGGATAT [XGTACX_site7019]	9.29
AAACTTTTTTTAAAAACACACATATATATTTATATA [CACACA_site4092]	9.22
GTTTAAAATCTTTGCACACATATAAATAAATATATT [CACACA_site2555]	9.44
AGTATATTAATATAATGTACAAACGTTTATTTTGTA [XGTACX_site5980]	9.22
GAAAAGTAGACAATATGTACATATAGTATTTATAAA [XGTACX_site878]	9.25
AGCAACCCCCTAGCTACACACATATAGATATAAATA [CACACA_site6577]	10
AAATATCTACATATTTGTACATATTTATACATATTT [XGTACX_site6300]	9.23
ATCATGTTATATATATGTACTAATAATATAATATAA [XGTACX_site1326]	9.18

Sequence	gcPBM binding intensity (ln)
GAATAATCTAGAAACACACAAACACGACAAAAGAAA [CACACA_site4135]	9.75
TACTAACTTTTTAAAAGTACAGAACCATAACCATAA [XGTACX_site7182]	9.28
ATATATATATATATATGGTAAAGTAAAAGGAAATAC [XGTACX_negctrl_site45]	9.62
AGTCGAATGATGTACACACATACAAAACATTTATGC [CACACA_site4022]	9.69
AGTTTATATTATTAAAGTACATATATATATTCTTAA [XGTACX_site3164]	9.29
CCAAACTAAATGTACACACATACATAAATATAAATA [CACACA_site1141]	9.72
ATGTAATAAATATACACACACAAATATATATATATA [CACACA_site2395]	9.86
ATATTTTCAGTTCTCCATTATGTTCCCATTATTTTT [CACACA_negctrl_site990]	9.71
CATGAATATTTTAATGTGCACATTTATCATTATATG	9.32
GTATAATTGGAAATTACACACCTTATAATGTAACAT [CACACA_site6091]	9.38
AATGATTTTAAAAAATGTACTTTATAAACAAAATTA [XGTACX_site3803]	8.81
TAAAGTGTCAAATTCACACACATATATATATATATA [CACACA_site1380]	9.39
TAAATTAGAATAAATACACACAAATTAGAATTCTAT [CACACA_site7781]	9.51
TTTTTTTTTGTTAGTTGTACGTTAAATGAATTTACT [XGTACX_site7675]	9.21
ATATTATATAACTTTTGTACGAACTATTTTATATAT [XGTACX_site6]	9.56
ACCTATGTATATTATACACACTCCAAACTATTCTTT [CACACA_site6939]	9.7
AAAAAAAAATATATATGTACATATGTATAATAAAAA [XGTACX_site2110]	9.41
TTTAGAGAAGTCAAGTGTACATATAAAATAATTCAC [XGTACX_site4997]	9.19
ATAAAAATAAATAAATTATATAAATGTAATATGAAA [GTGCAC_negctrl_site663]	9.18

Sequence	gcPBM binding intensity (ln)
TATTTATTTATATATGCATGCTAATAATTATAACAT [TGCATGCA_site988]	9.15
AATGAAGACTTTTTTACACACTTCATATATTATATA [CACACA_site2034]	9.56
AACATTTTAAAATAATGTACTTGAAAAAAAAACTAC [XGTACX_site8894]	9.18
TGTTCTAATATTTGTTGTACGTTTACGTTTCTCTCT [XGTACX_site18]	9.42
TATTTAAGAGTATGAACACACATCATACCCATATAA [CACACA_site5911]	9.41
CATATAAATAAATATACATGCATACATACATATATA [TGCATGCA_site713]	9.28
TTAATTTATGTTAATGGTACGTAAATGCATTTATTT [XGTACX_site3002]	9.26
ATTTAACCAAATAATATATTTAAAAAATAGTCACAT [CACACA_negctrl_site274]	9.21
TATAATATATGAAAAAGTACAAATATTTCGATGGTC [XGTACX_site129]	9.52
TTTTATAATTTGAGAACATGCAACATAAATATAAAG [TGCATGCA_site965]	9.2
TAACCAAAAAAAAATATTTAAAATAAATATATATAT [CACACA_negctrl_site1516]	9.13
TTTAGTTCATACTATGCACACTACGTATATTTTTAA [CACACA_site5484]	9.43
TATTTTCTCTTAAAAAGTACTCATATATACATTTAT [XGTACX_site7748]	9.07
ATAACATACATAACAACACACAATATTTATAGGTAT [CACACA_site6243]	9.89
CGTTATATATTTTATAGTACTTTTTGTAAATTTTTT [XGTACX_site7682]	9.23
ATTAATAAGAAGAAAAGTACAAAACAAAAAGATATA [XGTACX_site7473]	9.65
ATAATTTATATCATTACACACATTTTTTATATTTTT [CACACA_site3450]	9.67
TTTTTGAATGTTTGCACACAAATCTCATAATTTTAG [CACACA_site357]	9.27
TAGTTACATAAAATATGTACGTATAATTTTTTTATT [XGTACX_site3847]	9.06
